# According to the supplement of paper PMC11369174, “Proteome-scale characterisation of motif-based interactome rewiring by disease mutations” (Molecular Systems Biology, 2024):
# The list shows a part of the results. These are enrichments in a pooled selection; single values are uncertain.
# T1: AP2B1_adaptin__P63010_700_937
# T1 chain: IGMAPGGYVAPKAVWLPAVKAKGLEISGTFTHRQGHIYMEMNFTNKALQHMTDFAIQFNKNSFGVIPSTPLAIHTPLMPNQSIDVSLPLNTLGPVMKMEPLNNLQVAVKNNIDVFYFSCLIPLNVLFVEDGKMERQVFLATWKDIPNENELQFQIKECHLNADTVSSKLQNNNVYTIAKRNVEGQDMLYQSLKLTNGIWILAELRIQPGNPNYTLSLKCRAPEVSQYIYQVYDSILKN
# T2: AP2_Mu__Q96CW1_160_435
# T2 chain: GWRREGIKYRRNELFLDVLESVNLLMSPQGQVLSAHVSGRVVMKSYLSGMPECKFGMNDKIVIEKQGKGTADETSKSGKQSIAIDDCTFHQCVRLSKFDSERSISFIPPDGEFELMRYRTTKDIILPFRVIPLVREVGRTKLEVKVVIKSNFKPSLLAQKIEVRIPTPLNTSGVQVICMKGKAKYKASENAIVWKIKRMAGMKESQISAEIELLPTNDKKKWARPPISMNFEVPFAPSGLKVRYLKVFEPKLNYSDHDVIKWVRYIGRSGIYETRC
# T3: AURKA_Pkinase-merged__O14965_125_391
# T3 chain: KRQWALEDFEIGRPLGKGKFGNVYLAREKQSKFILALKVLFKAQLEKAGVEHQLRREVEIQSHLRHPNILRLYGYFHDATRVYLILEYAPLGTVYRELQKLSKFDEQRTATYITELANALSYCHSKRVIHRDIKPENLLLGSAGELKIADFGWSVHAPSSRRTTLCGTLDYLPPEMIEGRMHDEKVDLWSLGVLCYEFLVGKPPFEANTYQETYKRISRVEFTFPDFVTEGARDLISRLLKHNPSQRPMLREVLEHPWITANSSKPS
# T4: CSK21_Pkinase__P68400_1_335
# T4 chain: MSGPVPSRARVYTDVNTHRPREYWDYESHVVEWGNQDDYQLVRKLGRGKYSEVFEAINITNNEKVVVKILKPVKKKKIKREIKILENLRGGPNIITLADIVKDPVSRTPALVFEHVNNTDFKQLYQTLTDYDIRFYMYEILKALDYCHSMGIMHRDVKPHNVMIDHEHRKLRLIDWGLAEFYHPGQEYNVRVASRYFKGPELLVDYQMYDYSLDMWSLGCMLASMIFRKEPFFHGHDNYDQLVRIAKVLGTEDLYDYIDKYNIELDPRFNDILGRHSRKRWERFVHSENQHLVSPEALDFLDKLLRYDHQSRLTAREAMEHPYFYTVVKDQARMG
# T5: AP1G2_GAE__O75843_665_785
# T5 chain: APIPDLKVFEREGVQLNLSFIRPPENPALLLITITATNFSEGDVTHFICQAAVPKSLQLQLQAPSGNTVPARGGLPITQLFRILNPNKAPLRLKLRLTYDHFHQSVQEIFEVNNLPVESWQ
# T6: PEX14_Pex14__O75381_16_84
# T6 chain: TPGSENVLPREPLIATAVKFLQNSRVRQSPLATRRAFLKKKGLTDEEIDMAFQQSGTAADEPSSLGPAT
# T7: CLTC_Clathrin-propeller__Q00610_1_364
# T7 chain: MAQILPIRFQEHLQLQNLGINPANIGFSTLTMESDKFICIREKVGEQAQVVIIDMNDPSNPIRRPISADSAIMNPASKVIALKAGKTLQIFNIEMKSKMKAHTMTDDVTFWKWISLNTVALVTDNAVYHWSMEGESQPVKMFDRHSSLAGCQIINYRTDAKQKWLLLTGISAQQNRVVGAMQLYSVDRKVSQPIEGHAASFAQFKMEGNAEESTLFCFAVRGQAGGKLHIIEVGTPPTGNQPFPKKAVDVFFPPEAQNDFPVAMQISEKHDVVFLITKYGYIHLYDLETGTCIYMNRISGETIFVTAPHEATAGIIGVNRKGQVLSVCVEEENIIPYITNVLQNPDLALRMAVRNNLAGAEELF
# T8: DOK1_PTB__Q99704_151_256
# T8 chain: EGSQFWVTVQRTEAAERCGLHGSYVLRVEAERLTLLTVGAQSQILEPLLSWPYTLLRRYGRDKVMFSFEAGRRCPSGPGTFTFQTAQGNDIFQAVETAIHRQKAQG
# Tests used:
# Experiment in all cases: mean normalised NGS count of phage-displayed peptide after selection on bait (% of reads); baits are purified protein domains named by gene / domain / UniProt id / residues; peptides come from disordered regions of human proteins; higher = stronger enrichment / binding
# [1] = target: T1, AP2B1_adaptin__P63010_700_937
# [2] = target: T2, AP2_Mu__Q96CW1_160_435
# [3] = target: T3, AURKA_Pkinase-merged__O14965_125_391; settings: replicate selections in which the peptide was seen: 6
# [4] = target: T4, CSK21_Pkinase__P68400_1_335
# [5] = target: MK08_Pkinase__P45983_1_363; settings: replicate selections in which the peptide was seen: 2
# MK08_Pkinase__P45983_1_363, sequence (chain, as listed by the source): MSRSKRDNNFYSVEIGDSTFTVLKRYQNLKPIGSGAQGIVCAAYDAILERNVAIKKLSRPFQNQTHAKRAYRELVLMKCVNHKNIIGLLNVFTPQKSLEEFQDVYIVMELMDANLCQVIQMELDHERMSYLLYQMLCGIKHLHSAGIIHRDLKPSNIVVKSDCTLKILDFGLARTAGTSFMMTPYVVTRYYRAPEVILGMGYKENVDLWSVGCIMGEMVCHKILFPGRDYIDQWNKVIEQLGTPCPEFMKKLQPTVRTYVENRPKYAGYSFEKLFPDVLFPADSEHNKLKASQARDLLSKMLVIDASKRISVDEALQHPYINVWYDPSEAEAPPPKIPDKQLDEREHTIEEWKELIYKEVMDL
# [6] = target: T5, AP1G2_GAE__O75843_665_785
# [7] = target: T6, PEX14_Pex14__O75381_16_84
# [8] = target: ALYREF_RRM__Q86V81_78_183; settings: replicate selections in which the peptide was seen: 6
# [9] = target: T7, CLTC_Clathrin-propeller__Q00610_1_364; settings: replicate selections in which the peptide was seen: 6
# [10] = target: T8, DOK1_PTB__Q99704_151_256; settings: replicate selections in which the peptide was seen: 4
# [11] = replicate selections in which the peptide was seen: 3
# [12] = replicate selections in which the peptide was seen: 2
# [13] = replicate selections in which the peptide was seen: 4
# [14] = replicate selections in which the peptide was seen: 6
# [15] = replicate selections in which the peptide was seen: 5
binder,measurement,setting,value
NLDWLVSKLDWLEASS [RYR1 542-557 mut P21817.R552W],mean normalised NGS count,[1]; [11],0.203
YYPLTGDTRLELELRP [APOB 992-1007 wt],mean normalised NGS count,[2]; [11],0.0217
SDDSNFAQFELTTFDF [MSH2 281-296 mut P43246.G287A],mean normalised NGS count,[1]; [12],0.0393
DLTQVETFGFRGEALS [PMS2 97-112 wt],mean normalised NGS count,[1]; [13],0.0321
EEWSQWLGGSSWPDYV [HSPB1 40-55 mut P04792.G53D],mean normalised NGS count,[2]; [12],6.79
same,mean normalised NGS count,[3],48
same,mean normalised NGS count,[4]; [11],0.223
same,mean normalised NGS count,[5],0.341
DEQFGIWLDSSSPEQT [DYNC1H1 3954-3969 wt],mean normalised NGS count,[6]; [13],0.00566
DEVTAFLGEWWPFQRL [SLC22A5 5-20 mut O76082.G15W],mean normalised NGS count,[1]; [14],6.7
same,mean normalised NGS count,[7]; [14],2.79
DLYSRLGEQPPPGIVA [WNK4 1162-1177 mut Q96J92.K1169E],mean normalised NGS count,[8],68.4
SIVTNLDDSNWAAAFS [NUP107 100-115 mut P57740.M101I],mean normalised NGS count,[1]; [12],0.111
GTSPSGLNMGELIAWM [CAPN3 275-290 mut P20807.R289W],mean normalised NGS count,[6]; [14],3.68
same,mean normalised NGS count,[9],5.79
AKGYQLLEEEKIVSHY [GJA8 263-278 wt],mean normalised NGS count,[2]; [11],0.0832
GAANDWTQFTVAGRMV [SVIL 1204-1219 mut O95425.S1209W],mean normalised NGS count,[6]; [14],0.0669
VSHYFPLTEVGMVETS [GJA8 275-290 wt],mean normalised NGS count,[2]; [11],0.0171
QARYNQLQEQRDTMVT [TSC1 758-773 wt],mean normalised NGS count,[2]; [11],0.0799
QARYSQLQEQRDTMVT [TSC1 758-773 mut Q92574.N762S],mean normalised NGS count,[2]; [13],0.184
ELQSERSAVAWVWFQN [NOBOX 339-354 wt],mean normalised NGS count,[6]; [14],0.0516
ASENFLIAAVEAWGFQ [TBC1D24 539-554 wt],mean normalised NGS count,[1]; [14],2.28
LKEAETWAEFAERSVT [TPM1 232-247 mut P09493.R238W],mean normalised NGS count,[1]; [11],0.169
WSYLEEEEGVSISVYR [TTN 10422-10437 mut Q8WZ42.S10425L],mean normalised NGS count,[2]; [13],0.12
same,mean normalised NGS count,[10],0.0939
QGLQGAQMGQPWFFFP [GAA 115-130 mut P10253.C127F],mean normalised NGS count,[1]; [15],0.0668
NAQKHSPFSLSAWFWL [POMT1 175-190 mut Q9Y6A1.W186C],mean normalised NGS count,[1]; [14],5.15
same,mean normalised NGS count,[4]; [12],3.26
TESEAFGSLTEVSLPL [BARD1 267-282 wt],mean normalised NGS count,[6]; [12],0.0182
EEWSQWLGGSSWPGYV [HSPB1 40-55 wt],mean normalised NGS count,[2]; [12],0.734
same,mean normalised NGS count,[3],2.12
same,mean normalised NGS count,[5],0.0528
GVSERWQRLTFPAVSV [GNPTAB 780-795 mut Q3T906.L785W],mean normalised NGS count,[1]; [14],0.179
AETPAEPVDWAFAQRE [KIF1A 610-625 wt],mean normalised NGS count,[1]; [13],0.0239
EFADLTQVETFGFWGE [PMS2 94-109 mut P54278.R107W],mean normalised NGS count,[1]; [13],0.0741
EAAQQQQALASWQQWV [EVC2 1036-1051 wt],mean normalised NGS count,[6]; [14],0.212
EVDARHIIENAKQDVD [SMARCA4 700-715 wt],mean normalised NGS count,[8],0.991
DATSSVTFLPFMSWLP [SLC52A3 119-134 mut Q9NQ40.R132W],mean normalised NGS count,[6]; [14],10.7
SIFGDNMNELQTFVTN [GRIN2A 954-969 mut Q12879.A968T],mean normalised NGS count,[6]; [13],0.184
YDEVTAFLGEWGPFQH [SLC22A5 4-19 mut O76082.R19H],mean normalised NGS count,[6]; [14],64.7
SANNQRYAFMPLIDDS [TMEM87B 454-469 wt],mean normalised NGS count,[2]; [11],0.128
WTFQPFTNHSVDGPQR [SSUH2 127-142 wt],mean normalised NGS count,[1]; [14],0.135
SLPDFALKFLPGYVGG [DHCR7 113-128 mut Q9UBM7.H119L],mean normalised NGS count,[1]; [11],0.0436
KARYNQLQEQRDTMVT [TSC1 758-773 mut Q92574.Q758K],mean normalised NGS count,[2]; [13],0.242
DWAFAQHELLEKQGID [KIF1A 618-633 mut Q12756.R624H],mean normalised NGS count,[1]; [15],0.299
DLTQVETFGFWGEALS [PMS2 97-112 mut P54278.R107W],mean normalised NGS count,[1]; [14],49.8
DWAFAQHELLEKQGID [KIF1B 618-633 mut Q12756.R624H],mean normalised NGS count,[1]; [15],0.299
LLSDDSNFGQFQLTTF [MSH2 279-294 mut P43246.E290Q],mean normalised NGS count,[6]; [14],0.25
PLPSKSVDWTHFGGSP [TSC1 668-683 wt],mean normalised NGS count,[6]; [14],0.061
SADNQRYAFMPLIDDS [TMEM87B 454-469 mut Q96K49.N456D],mean normalised NGS count,[2]; [11],0.0372
YARFGEEHSANPFHWD [ABCA4 1858-1873 wt],mean normalised NGS count,[2]; [15],0.0247
LLSDDSNFAQFELTTF [MSH2 279-294 mut P43246.G287A],mean normalised NGS count,[1]; [15],0.183
LASWQQWVADGPGILN [EVC2 1044-1059 wt],mean normalised NGS count,[6]; [15],0.00884
DLYSRLGKQPPPGIVA [WNK4 1162-1177 wt],mean normalised NGS count,[8],14
AKGYQLLEEEKIVFHY [GJA8 263-278 mut P48165.S276F],mean normalised NGS count,[2]; [12],0.0495
PYPKWNSVFDQLTQVV [MAP2K4 306-321 wt],mean normalised NGS count,[1]; [14],0.502
same,mean normalised NGS count,[7]; [15],3.18
EKPNWPDTSFIWFLNP [OTOF 1935-1950 mut Q9HC10.R1939W],mean normalised NGS count,[1]; [12],0.0578
ELQTERSAVAWVWFQN [NOBOX 339-354 mut O60393.S342T],mean normalised NGS count,[6]; [14],1.92
YWMPKWINATDPSAAT [ASNS 536-551 mut P08243.R550C],mean normalised NGS count,[1]; [14],0.111
NGDDSLFFSNFSLLGA [CFTR 423-438 mut P13569.T438A],mean normalised NGS count,[1]; [13],0.0235
AIESPSKDDDTVWLTY [REEP6 73-88 wt],mean normalised NGS count,[6]; [14],0.0553
LLSDDSNFGQFELTTF [MSH2 279-294 wt],mean normalised NGS count,[6]; [14],4.34
DWAFAQRELLEKQGID [KIF1A 618-633 wt],mean normalised NGS count,[1]; [11],0.0199
